Reference: publication PMC7337969
No constants are given. Whether binding was seen depends on the method and setting. Binding seen in cells or lysates may run through a third protein. Some binding calls cover weakened binding; strength is not graded here. Tags and fused reporters may be left off the sequences shown.

Columns and labels:
Experiment in all cases: co-IP; FLAG-tagged HSF2BP and GFP-tagged MEIOK21 (full length or truncations) co-transfected into HEK-293T cells, lysed after 48 hours, precipitated with GFP antibody; IgG as control
[1] = target: T1, GFP-tagged MEIOK21(301-600) (mouse) (UniProt Q6DIA7)
T1 sequence: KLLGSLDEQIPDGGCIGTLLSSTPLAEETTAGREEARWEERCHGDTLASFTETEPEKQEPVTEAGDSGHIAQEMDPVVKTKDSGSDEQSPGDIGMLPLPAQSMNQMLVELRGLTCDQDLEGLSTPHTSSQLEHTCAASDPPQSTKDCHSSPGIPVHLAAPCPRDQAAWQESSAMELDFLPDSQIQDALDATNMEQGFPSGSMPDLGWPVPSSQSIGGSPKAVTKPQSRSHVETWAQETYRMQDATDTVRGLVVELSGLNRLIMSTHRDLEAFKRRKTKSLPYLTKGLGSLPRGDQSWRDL

[2] = target: T2, GFP-tagged full length MEIOK21 (mouse) (UniProt Q6DIA7)
T2 sequence: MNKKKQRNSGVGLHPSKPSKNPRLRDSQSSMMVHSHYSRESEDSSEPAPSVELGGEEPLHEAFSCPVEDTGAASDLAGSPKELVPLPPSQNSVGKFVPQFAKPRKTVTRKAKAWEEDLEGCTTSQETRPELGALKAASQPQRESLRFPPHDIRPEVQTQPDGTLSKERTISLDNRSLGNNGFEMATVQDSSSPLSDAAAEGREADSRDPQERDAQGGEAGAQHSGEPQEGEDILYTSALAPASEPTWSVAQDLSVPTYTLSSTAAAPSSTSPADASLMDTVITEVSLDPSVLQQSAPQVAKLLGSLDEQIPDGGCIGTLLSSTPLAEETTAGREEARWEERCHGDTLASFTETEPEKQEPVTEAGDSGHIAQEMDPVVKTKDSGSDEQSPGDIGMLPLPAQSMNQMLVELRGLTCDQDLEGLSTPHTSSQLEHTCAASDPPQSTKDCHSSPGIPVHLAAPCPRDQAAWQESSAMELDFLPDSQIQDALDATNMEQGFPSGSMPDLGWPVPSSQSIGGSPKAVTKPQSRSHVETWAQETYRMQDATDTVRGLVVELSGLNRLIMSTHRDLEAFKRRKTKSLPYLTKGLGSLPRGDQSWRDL

[3] = target: T3, GFP-tagged MEIOK21(1-300) (mouse) (UniProt Q6DIA7)
T3 sequence: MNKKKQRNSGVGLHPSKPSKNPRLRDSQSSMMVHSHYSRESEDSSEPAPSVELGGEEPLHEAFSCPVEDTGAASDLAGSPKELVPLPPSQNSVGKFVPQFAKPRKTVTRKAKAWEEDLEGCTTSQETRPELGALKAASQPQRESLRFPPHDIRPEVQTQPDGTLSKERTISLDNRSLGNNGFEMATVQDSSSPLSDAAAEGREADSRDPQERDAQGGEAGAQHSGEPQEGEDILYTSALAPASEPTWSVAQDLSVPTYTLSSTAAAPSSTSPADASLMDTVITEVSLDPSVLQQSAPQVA

[4] = target: T4, GFP-tagged MEIOK21(451-600) (mouse) (UniProt Q6DIA7)
T4 sequence: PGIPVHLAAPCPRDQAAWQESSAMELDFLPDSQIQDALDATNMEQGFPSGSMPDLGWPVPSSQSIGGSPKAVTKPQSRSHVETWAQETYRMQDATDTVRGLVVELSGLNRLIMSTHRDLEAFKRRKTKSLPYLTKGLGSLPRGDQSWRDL

B1: FLAG-tagged HSF2BP (protein, UniProt Q9D4G2 1-338)
chain: MAATVGDGSGTEEACRNMESKEEFVKVRKKDLERLTTEVMQIRDFLPRILNGELLESFQKLKMVEKNLERKEQELEQLIMDREHFKARLETAQADSGREKKEKLALRQQLNEAKQQLLQQAEYCTQMGAVTCTLLWGVSSSEEVVKTILGGDKALKFFNITGQTMESFVKSLDGDVKEVDSDENQFVFALAGIVTNVAAIACGREFLVNSSRVLLDTMLQLLGDLKPGQCTKLKVLMLMSLYNVSINSKGLKYITESPGFIPLLWWLLSDPDAEVCLHTLRLIQSVVLEPDVFSKVASELQSSLPLQRILAMSKSRNSHLQSAAQELLEDLRALDCNV
Question: Which binding [1] does the source give for B1 here?
Answer: binds

Question: What about the binding [2] of the same binder?
Answer: binds

Question: What about the binding [3] of the same binder?
Answer: no binding

Question: And the binding [4]?
Answer: binds
